Assay results published in patent US20250171549A1.
Some entries of the source have several records that differ or are many. They are shown here; other results are not. The source may hold further records. The records of an entry seem to repeat one measurement; one of them may be the mean.

Target: human CCR8 (human) (UniProt P51685)
Assay: flow cytometry, primary human Tregs, purified antibody 20 ug/ml

anti-human CCR8 antibody clone 433H (BD 747578), sequence (VH): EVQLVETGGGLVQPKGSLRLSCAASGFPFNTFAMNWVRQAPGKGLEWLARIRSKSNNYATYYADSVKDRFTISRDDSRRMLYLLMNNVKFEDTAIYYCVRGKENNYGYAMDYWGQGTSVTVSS
anti-human CCR8 antibody clone 433H (BD 747578), sequence (VL): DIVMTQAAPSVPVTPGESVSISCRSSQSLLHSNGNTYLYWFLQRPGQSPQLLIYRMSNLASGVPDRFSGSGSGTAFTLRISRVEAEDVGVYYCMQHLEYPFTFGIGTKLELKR
UniProt P51685, sequence (P51685 whole entry): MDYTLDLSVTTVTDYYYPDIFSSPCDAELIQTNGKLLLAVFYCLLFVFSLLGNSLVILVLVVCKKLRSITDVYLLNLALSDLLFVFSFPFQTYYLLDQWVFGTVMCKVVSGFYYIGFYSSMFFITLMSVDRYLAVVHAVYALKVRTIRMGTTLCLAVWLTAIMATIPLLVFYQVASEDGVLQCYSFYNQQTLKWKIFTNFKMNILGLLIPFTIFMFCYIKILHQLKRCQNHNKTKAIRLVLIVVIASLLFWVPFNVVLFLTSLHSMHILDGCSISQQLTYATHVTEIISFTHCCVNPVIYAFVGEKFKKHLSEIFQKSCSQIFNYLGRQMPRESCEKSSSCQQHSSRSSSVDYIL

How did the CCR8+CD127-CD25+CD4, % positive turn out when “anti-human CCR8 antibody clone 433H (BD 747578)” was run?
The CCR8+CD127-CD25+CD4, % positive was 83.4%, 29.4%, 67.5% [columns of one line].
